Results taken from article PMC12040169 (PLOS Biology, 2025).
The other results are listed elsewhere or left out.

tested on: T1, C. trachomatis L2/434/Bu expressing GFP (CTL2-GFP); design: species or system HeLa; C. trachomatis total inclusion area by high-content imaging, normalised to DMSO; details: total inclusion area; 28.5 h, 10 µM; inhibitor
T1 construct: L2/434/Bu GFP intracellular growth in HeLa cells
Outline: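 Following bulk GFP and resorufin fluorescence reads, infected cells were fixed, Hoechst-stained and imaged on a high-content platform. Inclusion total area and number per well served as growth proxies; nuclei counts indicated host viability. MICs were derived as for the fluorescence assay.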

| Structure (SMILES) | % of control remaining |
| --- | --- |
| CC(=O)OCc1nc2cc(F)c(F)cc2[nH]1 [CBK110117] | 103.66 |
| O=C(c1cc(F)c(F)cc1F)N1CCC2(CCCN(C(=O)c3cccc4[nH]ccc34)C2)C1 (centres unmarked) [CBK131544] | 88.2255 |
| CCOC(=O)c1cc2c3ccccc3n(CC)c2nc1N [CBK100822] | 101.514 |
| CCCCN(C)c1c(CC)nc2ccc(C(=O)NCCN3CCCC3)cn12 [CBK145440] | 94.503 |
| CC(=O)N1C[C@H]2CCCN(S(=O)(=O)c3cccs3)[C@H]2C1 [CBK285275] | 91.6777 |
| CC(NC(=O)CCc1cnn(C)c1)c1nc(-c2ccncc2)cs1 (centres unmarked) [CBK305496] | 45.3368 |
| Cc1cccn2c(CN3CCCC(O)C3)c(C(=O)N3CCCCC3)nc12 (centres unmarked) [CBK307342] | 65.319 |
| Cc1ncccc1OC1(C(=O)NCc2n[nH]c3c2CCC3)CCNCC1 [CBK307057] | 62.068 |
| O=C(Cc1ccsc1)N1CCC[C@@H]1Cn1c(=O)oc2ccccc21 [CBK284530] | 127.636 |
| O=C(c1cncnc1)N1Cc2ccccc2C1 [CBK200223] | 66.9131 |
| CN1CCN(C(=O)c2cnn(-c3ccccc3)c2NC(=O)c2ccc(F)cc2)CC1 [CBK265198] | 97.1388 |
| Cc1c(C(=O)N2CCNCC2C)nnn1-c1ccc2ncccc2c1 (centres unmarked) [CBK304473] | 52.3081 |
| O=C(C1CCN(S(=O)(=O)c2ccc(F)cc2)C1)N1CCN(C2CCCC2)CC1 (centres unmarked) [CBK285703] | 93.4804 |
| O=C(O)C1Nc2ccc(Oc3ccccc3)cc2C2C=CCC12 (centres unmarked) [CBK286542] | 79.8854 |
| CNC(=O)C1(Cc2ccccc2-c2ccccc2)CCN(C(=O)c2cccc(OC)c2)CC1 [CBK285922] | 120.96 |
| COCCCn1c(SCc2csc(-c3ccc(C)cc3)n2)n[nH]c1=O [CBK295657] | 42.2015 |
| O=c1cc(CN2CCC(Oc3nccnc3OCc3ccc(Cl)c(Cl)c3)CC2)[nH]c(=O)[nH]1 [CBK153784] | 84.1189 |
| CCNC(=O)COc1ccc(C=Cc2nc(-c3ccccc3)c(C(=O)O)s2)cc1OCC [CBK296644] | 67.4258 |
| CC(Sc1nc2ccc(Cl)cc2o1)C(=O)N1CCOCC1 (centres unmarked) [CBK305164] | 52.166 |
| CCCn1c(C)nnc1CN(CC1CCCO1)C1CCCC1 (centres unmarked) [CBK304465] | 73.7208 |
| COCc1cc(C)nc(SCC(=O)O)c1C#N [CBK270463] | 96.811 |
| Cc1nn(C)cc1CN(Cc1ccccc1)CC1CCCO1 (centres unmarked) [CBK283264] | 114.178 |
| O=C(Cc1ccsc1)N1CCC2(CCCNC2)C1 (centres unmarked) [CBK137153C] | 97.6344 |
| CCn1c(CNC(=O)c2cc(C(C)C)on2)nc2ccccc21 [CBK281393] | 91.3668 |
| COc1ccc(Cn2nnnc2C(CC(C)C)N2CCC(C(N)=O)CC2)cc1 (centres unmarked) [CBK084783] | 100.914 |
| CCN(Cc1ncc[nH]1)[C@H]1CCO[C@@H](c2ccccc2-c2ccc(OC)cc2)C1 [CBK285842] | 113.25 |
| O=C(O)c1ccc(N2C(=O)CC(c3ccccc3)CC2=O)cc1 [CBK291169] | 119.218 |

| Structure (SMILES) | % of control remaining |
| --- | --- |
| CC(NC(=O)c1cnc(-c2ccc(Cl)cc2)c(-c2ccc(O)cc2)c1)c1ccc(F)cc1 (centres unmarked) [CBK036751] | 112.953 |
| CC(NC(=O)C1CCN(Cc2cccnc2)CC1)c1ccc(F)cc1 (centres unmarked) [CBK148032] | 97.5874 |
| O=S(=O)(/C=C/c1ccccc1)Nc1cccc2[nH]ccc12 [CBK155772] | 101.869 |
| Cc1ccc(S(=O)(=O)N2CCN(C(=O)c3ccco3)CC2)cc1 [CBK068166] | 101.551 |
| COc1ccc(-c2cc(CC3(NCc4ccccc4O)COC3)no2)cc1 [CBK289697] | 109.775 |
| COc1ccc(-c2nc3cc(NC(=O)c4ccccc4Br)ccc3o2)cc1 [CBK264953] | 106.292 |
| Cc1cccc(C2(O)CCN(CC(O)c3ccc(F)cc3)CC2)c1 (centres unmarked) [CBK282504] | 97.7291 |
| O=C(NCc1ccc(Cl)cc1)N(Cc1cccnc1)Cc1ccc2c(c1)OCO2 [CBK159449] | 92.2095 |
| CCN(CC)C(=O)c1sc2ncccc2c1NS(=O)(=O)c1c(C)noc1C [CBK050617] | 72.2322 |
| Cn1ccc(C(=O)N2CCCC(c3cc4ncccc4[nH]3)C2)n1 (centres unmarked) [CBK283412] | 107.927 |
| O=C(Cn1cnc2c(cnn2-c2ccc(F)cc2)c1=O)NCc1ccccc1 [CBK287538] | 116.304 |
| Cc1nc(C2CCN(C(=O)CCc3ccno3)CC2)c2sccn12 [CBK282239] | 121.03 |
| CCN(Cc1cn2ccc(C)cc2n1)CC1CCOCC1 [CBK306680] | 53.7135 |
| CC(=O)Nc1ccc(C(=O)N2CCCC(c3cccc(Cc4ccccc4Cl)n3)C2)cc1 (centres unmarked) [CBK286126] | 92.59 |
| [N-]=[N+]=NC1C2OCC(O2)C(OCc2ccccc2)C1O (centres unmarked) [CBK261000] | 105.848 |
| CC(=O)Nc1ccc(S(=O)(=O)N2CCN(C(=O)c3ccco3)CC2)cc1 [CBK068319] | 97.0172 |
| COC(=O)c1c(NC(=O)Cn2ccc([N+](=O)[O-])n2)sc2c1CCCC2 [CBK268960] | 122.709 |
| CCNc1cccnc1N1CCN(CCc2cc(C)c(O)c(C)c2)CC1 [CBK024361C] | 67.8693 |
| c1ccc(CCN2CCN(c3nccnc3OCC3COc4ccccc4O3)CC2)cc1 (centres unmarked) [CBK082794T] | 73.5226 |
| O=c1[nH]nc2cc(SCc3ccc(Cl)cc3)ncn12 [CBK300540] | 132.321 |
| CN1CCN(C(c2cccs2)c2nnnn2C(C)(C)C)CC1 (centres unmarked) [CBK141702] | 79.7378 |
| COc1ccc(N(C(C)C(=O)Nc2ccc(Cl)c(Cl)c2)S(C)(=O)=O)cc1 (centres unmarked) [CBK266872] | 106.258 |
| OCC1(CNc2ncc(F)c(N3CCCC3)n2)CCOCC1 [CBK306647] | 29.6376 |
| Cc1cccc(NC(=S)N/N=C/c2sccc2C)c1 [CBK022228] | 60.3135 |
| Cc1cc(C)cc(NC(=O)Cc2cc(=O)[nH]c(SCc3ccccc3)n2)c1 [CBK287842] | 98.6688 |
| Cc1nc(CC(=O)N2CCOC(c3ccc(F)cc3)C2)cs1 (centres unmarked) [CBK305759] | 78.1346 |
| O=S(=O)(NCCc1ccccc1)c1cccc2nsnc12 [CBK261128] | 100.921 |

| Structure (SMILES) | % of control remaining |
| --- | --- |
| CC[C@H](C)[C@H](NC(N)=O)C(=O)Nc1ccc(F)c([N+](=O)[O-])c1 [CBK297489] | 86.7823 |
| CCC(=O)N1CCC(c2nc(Cc3cccs3)no2)C1 (centres unmarked) [CBK282968] | 87.1261 |
| Cc1c(C(=O)N2CCCC(c3cnccn3)C2)oc2c(F)cccc12 (centres unmarked) [CBK285302] | 80.8281 |
| Cc1cc(CCCC(=O)NCc2ccc(-c3ccc(C(N)=O)c(C)n3)cc2)ccc1F [CBK286016] | 114.583 |
| CC(CN1CCOCC1)NS(=O)(=O)c1cccc(C(=O)N2CCCC2)c1 (centres unmarked) [CBK307053] | 36.7748 |
| CCn1c(SCc2cc(Cl)c3c(c2)OCCO3)nnc1-c1ccc(OC)cc1 [CBK297086] | 99.7815 |
| O=C(O)c1ccc(/C=N/NC(=O)c2ccco2)cc1 [CBK263569] | 93.459 |
| CCOC(=O)C1CCCN(CCC(=O)Nc2cc(C)cc(C)c2)C1 (centres unmarked) [CBK264284] | 96.0821 |
| Cc1noc(C)c1S(=O)(=O)NCC(=O)N1CCOCC1 [CBK034476] | 86.8488 |
| CSc1nc(NC(=O)c2cc(-c3ccccc3)oc2C)cc(N2CCNCC2)n1 [CBK050364T] | 82.4644 |
| CC(CC(=O)NC(c1ccc(F)cc1)c1nccn1C)n1cccn1 (centres unmarked) [CBK281454] | 104.473 |
| NS(=O)(=O)c1ccc(NS(=O)(=O)c2ccc(NC(=O)Nc3ccc(Cl)cc3)cc2)cc1 [CBK264902] | 92.7079 |
| CCCOc1cccn2c(N(CC(=O)N(C)C)C(C)=O)c(CC)nc12 [CBK147850] | 103.506 |
| COc1cccc(CN(Cc2ccco2)Cc2cnc(C)n2C)c1 [CBK282494] | 110.802 |
| CSc1ccccc1C(=O)Nc1nccs1 [CBK288225] | 94.4931 |
| Cc1ccc(C)c(C(=O)C2=C(O)C(=O)N(CCN(C)C)C2c2ccc(O)cc2)c1 (centres unmarked) [CBK265740] | 125.426 |
| Cc1ccnc(NCC2CCN(Cc3cc(=O)n4ccccc4n3)C2)c1 (centres unmarked) [CBK306003] | 10.4327 |
| COc1ccc(/C(N)=N/OC(=O)Cc2ccc(Cl)cc2)cc1OC [CBK263272] | 109.66 |
| Cc1ccnc(NS(=O)(=O)c2ccc(NC(=O)c3cc(-c4ccc(Br)cc4)nc4ccccc34)cc2)n1 [CBK263650] | 111.871 |
| O=C(N[C@H]1CCCC[C@H]1N1CCCC1)N[C@H]1CCCC[C@H]1N1CCCC1 [CBK003419] | 117.816 |
| COc1ccc(-n2ncc(-c3cccc(C(F)(F)F)c3)n2)cn1 [CBK112678] | 98.6666 |
| CN1CCC[C@@H]2[C@H]1[C@@H](c1ccc(F)cc1)CN2C(=O)c1ccccn1 [CBK283081] | 98.3265 |
| CC(C)c1noc([C@@H]2Cc3[nH]cnc3CN2C(=O)Nc2ccccc2)n1 [CBK288969] | 97.446 |
| O=S(=O)(c1ccccc1)N(Cc1cc2ccccc2nc1O)CC1CCCO1 (centres unmarked) [CBK269424] | 70.601 |
| C=CCNC(=O)N[C@H]1CCN2C(=O)c3ccccc3NC(=O)[C@@H]2C1 [CBK289568] | 88.2988 |
| COC(=O)c1c(C)oc2cc(Br)c(OCC(=O)c3ccc(Cl)cc3)cc12 [CBK264946] | 101.76 |
